“And” between values parts separate entries of the source, which are not always exact repeats. Equal values may be shown once. The campaign covered roughly 16,000 compounds. About 40 (0.2%) were called active. Inconclusive results (about 1%) are left out. Calls come from the whole dose curve; as a rule, active = well fitted activation curve with a large enough effect; inconclusive = small, poorly fitted or top-dose-only effect, or another doubt; inactive = no such curve, though single readings can be large or run the other way. This is one part of the list.
These compounds were tested against Rap guanine nucleotide exchange factor 4 (Homo sapiens) (UniProt Q8WZA2) (assay: Validation qHTS for agonist of cAMP-regulated guanine nucleotide exchange factor 4 (EPAC2)). Settings: EPAC2 Rap1B BODIPY-GDP exchange, fluorescence; activation: active compounds read high.
Summary of the method: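 Fluorescent exchange assay: 100 nM EPAC2 with 250 nM RAP1B-BODIPY-GDP and 50 uM GDP; compound added, 5 min at room temperature, then read (ex 480/em 540 nm) every 5 min for 30 min. Normalized to 6.5 mM cAMP agonist control.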
% is set by controls: 0 for no effect and ±100 for the full control effect.
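Note: exchange makes BODIPY-GDP fluorescence drop when released from Rap1B; series mostly up to about 150 µM.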

Sequence of UniProt Q8WZA2 (Q8WZA2 whole entry, looked up): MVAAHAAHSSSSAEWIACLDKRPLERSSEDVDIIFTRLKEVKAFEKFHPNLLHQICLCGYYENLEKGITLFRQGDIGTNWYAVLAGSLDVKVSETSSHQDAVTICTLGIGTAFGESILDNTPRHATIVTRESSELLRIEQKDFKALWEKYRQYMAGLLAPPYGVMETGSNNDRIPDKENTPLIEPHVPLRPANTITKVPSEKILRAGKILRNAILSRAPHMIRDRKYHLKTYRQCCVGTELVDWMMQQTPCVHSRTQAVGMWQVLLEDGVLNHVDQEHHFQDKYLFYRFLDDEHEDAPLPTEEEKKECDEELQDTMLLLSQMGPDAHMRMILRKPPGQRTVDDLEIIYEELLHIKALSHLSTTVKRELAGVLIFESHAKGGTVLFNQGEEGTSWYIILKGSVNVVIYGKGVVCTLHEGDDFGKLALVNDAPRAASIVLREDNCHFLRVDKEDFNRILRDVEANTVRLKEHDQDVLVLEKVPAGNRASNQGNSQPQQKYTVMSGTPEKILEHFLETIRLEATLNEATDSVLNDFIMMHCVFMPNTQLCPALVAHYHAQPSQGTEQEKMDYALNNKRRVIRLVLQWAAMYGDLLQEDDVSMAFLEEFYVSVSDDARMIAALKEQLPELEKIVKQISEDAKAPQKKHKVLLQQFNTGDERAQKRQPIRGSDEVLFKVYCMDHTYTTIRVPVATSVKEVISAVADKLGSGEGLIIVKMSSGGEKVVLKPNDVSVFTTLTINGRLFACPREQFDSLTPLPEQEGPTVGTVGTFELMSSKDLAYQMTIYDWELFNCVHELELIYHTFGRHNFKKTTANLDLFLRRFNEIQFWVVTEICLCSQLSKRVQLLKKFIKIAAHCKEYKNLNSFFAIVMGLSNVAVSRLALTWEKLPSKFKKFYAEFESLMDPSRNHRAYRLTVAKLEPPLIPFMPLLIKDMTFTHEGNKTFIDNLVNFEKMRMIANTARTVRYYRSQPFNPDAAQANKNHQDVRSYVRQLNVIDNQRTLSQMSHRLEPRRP

activation, inactive:
CC(=O)NCCNc1ncncc1-c1ccccc1CN(C)C -3.76%
CCC1CN(CCNC(=O)C2CCCCN2C)Cc2cc(OC)ccc2O1 (stereo not given) -7.43%
O=C(O)[C@H]1CN(CCCP(=O)(O)O)CCN1 -7.58% and 2.42%
COc1ccc2[nH]c3c(c2c1)CCNC3=O -30.7%
COC(=O)[C@@H](CC(C)C)N(Cc1ccccc1)S(=O)(=O)N(Cc1ccccc1)[C@@H](CC(C)C)C(=O)OC -16.6%
CC(=O)NCCNc1nc(-c2ccc3c(c2)OCO3)nc2ccccc12 -5.7%
Cc1nc2cnc(N3CCOCC3)nc2n(Cc2ccc(F)cc2)c1=O -2.06%
COCC(=O)N1CCC[C@@]2(CCN(c3ncccn3)C2)C1 -19.3%
CC(C)[C@H]1CC[C@@H](C)C[C@H]1O 5.12%
COc1ccc(Oc2ncc3nc(CCc4ccccc4)c(=O)n(C)c3n2)cc1 -20.2%
CCOc1cccc(CN2CCC(n3cc(C(=O)N4CCCCC4)nn3)CC2)c1O -17.3%
O=C1NCCN1c1ncc([N+](=O)[O-])s1 8.92%
O=C(NCC1Cc2cccc(-c3cnccn3)c2O1)c1ccc(F)c(Cl)c1 (stereo not given) -9.54%
C[Se]CC[C@H](N)C(=O)O -5.06%
O=C(/C=C(\O)c1ccccc1)c1ccccc1O 7.76%
COc1ccc(-c2nc3cc(C)ccc3cc2CN(C(=O)c2cc(C)nn2C)C2CC2)cc1OC 1.72%
O=C(O)C1=C[C@@H](O)[C@@H](O)[C@H](O)C1 0.761%
O=S(=O)(c1ccccc1)N1CCC2(CCN(Cc3nccs3)CC2)CC1 -0.608%
C1N2CN3CN1CN(C2)C3 -5.37% and -18.9%
CCN(CC)CCNC(=O)c1cnn(-c2nccc(-c3cc4ccccc4o3)n2)c1C -25.5%
O=C(c1cccc(F)c1)N1CCC2(CCCN(Cc3ccccc3)C2)CC1 -5.42%
CCOC(=O)c1c(C)[nH]c2ccc3c(c12)CN1CCc2cc(OC)ccc2[C@@H]1O3 -14.1%
O=C(O)C1CCNCC1 -5.44%
NC(N)=NN=Cc1c(Cl)cccc1Cl -15.5%
Cc1ncc2c(c1CNC(=O)c1ccc3c(c1)OCO3)CCN(C(=O)c1cnsn1)C2 -11.5%
Cc1cccc(CNc2ncncc2-c2ccc(C(=O)N(C)C)cc2)c1 -6.06%
CC1(C)CCC(NC(=O)[C@@H](N)CCC(=O)O)CC1 -10.2% and -7.65%
CS(=O)(=O)N1CCC2(CCN(c3ccncc3)CC2)CC1 -6.4%
NCCn1oc(=O)[nH]c1=O -0.174%
Nc1ncnc2c1ncn2C1CC(O)C(CO)O1 (stereo not given) -9.28% and -0.635%
COCCn1c(=O)c(-c2ccc(F)cc2)nc2cnc(Nc3cccc(OC)c3)nc21 6.42%
C[C@@]1(C(=O)O)NCCc2cc(O)c(O)cc21 -24.9%
CCCCCCCC/C=C\C/C=C\C/C=C\CCCC(=O)NCCO -31.9%
COC(=O)c1ccc(CN2CCC3(CCC(CNC(=O)c4ccco4)O3)CC2)cc1 (stereo not given) -8.93%
CN(C)C=Nc1c(I)cc(I)c(CCC(=O)O)c1I -2.85%
CC(C)NC[C@H](O)c1ccc(NS(C)(=O)=O)cc1 -12.8%
O=C(O)c1c(C(=O)O)c2ccccc2[nH]c1=O 12%
CC(=O)N1CCC2(CCN(Cc3ccccc3)CC2)CC1 -10.1%
Cc1cc(C)nc(S[C@@H]2C[C@@H](C(=O)N3CCCN(C)CC3)N(Cc3cc(F)ccc3F)C2)n1 -5.45%
CC=C1C2C=C(C)CC1(N)c1ccc(=O)[nH]c1C2 (stereo not given) 1.46%
COCCNc1nc(-c2ccc(C(=O)N(C)C)cc2)nc2ccccc12 -13.1%
COc1cc(O)c(C(=O)/C=C/c2ccc(OC)c(O)c2)c(OC)c1 4.3%
CNc1ncnc2ccc(-c3cccc(OC)c3)cc12 -1.86%
C=CCc1ccc(O)c(OC)c1 -11.3% and -8.61% and -7.29%
CS(=O)(=O)Nc1cccc(-c2nc(NCc3cccs3)c3ccccc3n2)c1 5.39%
COc1ccc(NC(=O)N2CC3(CCN(C(=O)c4cccn4C)CC3)C2)cc1 0.998%
Cc1noc(C)c1C(=O)N1CCC2(CCCN(Cc3ccccc3)C2)CC1 -20%
OC[C@@H](O)[C@@H](O)[C@H](O)[C@H](O)CO -3.39%
CC(=O)N[C@@H](Cc1ccc(O)cc1)C(=O)O -15.3%
CCCCc1c(C)nc2c(OC)cccc2c1SCC(=O)O -22.7%
COCc1c(C(=O)NC2CCOC(C)(C)C2)cnn1-c1nccc(-c2cccs2)n1 (stereo not given) -6.92%
O=S1(=O)CCOC[C@H](CC2CCCCC2)N1Cc1ccccc1Br -28.3%
COc1cccc(-c2cncnc2-n2ccnc2)c1 -19.5%
CC1(C)CCC=[N+]1[O-] -21.1%
COC(=O)C1=C(C)NC(COC(N)=O)=C(C(=O)OC(C)C)C1c1cccc(Cl)c1Cl (stereo not given) -4.02%
Cc1ccccc1-c1cncnc1Nc1ccc(F)cc1 4.68%
CC(=O)OCC(=O)NCCCOc1cccc(CN2CCCCC2)c1 -4.99% and -32%
O=[N+]([O-])c1ccc(C=C2c3ccccc3-c3ccccc32)cc1 -12.5%
CS(=O)(=O)c1ccc(-c2nc(-c3ccc(F)cc3)c(-c3ccncc3)[nH]2)cc1 1.89%
CCn1cc(C(=O)O)c(=O)c2cc(F)c(N3CCNCC3)nc21 -9.85% and 1.46%
